Source: US20220290196A1, “GENETICALLY ENGINEERED MICROBES AND BIOSYNTHETIC METHODS” (The Regents of the University of California, priority 2019, published 2022)
Not every entry of the source has a single result; some have several. This is not the full list of results. An entry can have further records. Values given together read as repeated measurements (runs, samples, wells or individuals).

Substrate: N[C@@H](Cc1c[nH]c2cc(Cl)ccc12)C(=O)O
Test: Kinetic characterization of Tar13-catalyzed oxidation of L-6-Cl-tryptophan
Assay type: biochemical, Saccharomonospora sp. CNQ-490
Conditions: other: Tar13, L-6-Cl-Trp, 30° C., pH 8.0
Protocol: To determine kinetic parameters for Tar13-catalyzed oxidation of L-6-Cl-tryptophan, the following reaction conditions were used:
Buffer: up to 50 μL (50 mM Tris, 500 mM NaCl 10% glycerol, pH 8.0)
In a separate Eppendorf tube premix:
The enzyme mixture was added to the substrate solution to start the reactions. The reactions were incubated at 30° C. for 5, 10, 15, 30 min, after which the assays were quenched by addition of equal volume of HPLC grade methanol and frozen at −70° C. till further analysis by HPLC. All assays were performed in triplicates for each substrate concentration and every time point. In parallel, for each time point and substrate concentration, assays with no added enzyme were used as controls. Prior HPLC analysis (method 5), L-tryptophan was added to the quenched reaction mixtures as an internal standard for quantification.
Product formation was quantitated by calculating decrease of the area of the remaining substrate in comparison to the substrate peak area in the control with no enzyme added, and the ratio of peak areas to internal standard were fitted into a calibration curve to determine product concentrations.

B1: Saccharomonospora sp. CNQ-490 Tar13 (tryptophan 2,3-dioxygenase), wild type, SEQ ID NO: 1 (expressed SEQ ID NO: 2) (Saccharomonospora piscinae) (protein)
chain: MTERTATRTEPAYGEILRLDELLELACVNDEADRALFLSAHQACEIWFAVVLRHLEDVTDALSLDDGATAAELLERLPRIITVIIEHFEVLGTLKPEAFDRIRADLGSSSGFQSVQYREIEYLCGARDTRFLNTAGFRDRDRRRLRERLAKRSLSNVFLEYRGRAGDRDACRISDALHEFDDSVRALRLRHAGIAELFLGSIPGTAGTAGAAYLRRSASRTLFPELFDRRASGTGG
  Km: 112.3±23.7 μM and 12.3 μM
